Reference: the supplement of paper PMC11876631
± gives the standard deviation of the averaged measurements. Laboratory Escherichia coli strains with one amino-acid change in an essential protein, pooled on minimal glucose agar with carbenicillin or gentamicin at twice the control MIC (plus kanamycin and chloramphenicol for the plasmids), 48 h. Fold change of barcode share against drug-free plates; higher = less susceptible. Active = above 20 in both replicates (the paper's putatively resistant). '<' = one read or none on drug, '>' = one read or none on a drug-free plate. Shares are relative, so most strains fall below 1 when a few take over. Listed are strains with at least 15 reads on both drug-free plates, and hits; most hits rest on fewer reference reads. Replicate rank correlation about 0.5. Edits are read from barcodes.

B1: parE; numbered along this chain (parent)
chain: MTQTYNADAIEVLTGLEPVRRRPGMYTDTTRPNHLGQEVIDNSVDEALAGHAKRVDVILHADQSLEVIDDGRGMPVDIHPEEGVPAVELILCRLHAGGKFSNKNYQFSGGLHGVGISVVNALSKRVEVNVRRDGQVYNIAFENGEKVQDLQVVGTCGKRNTGTSVHFWPDETFFDSPRFSVSRLTHVLKAKAVLCPGVEITFKDEINNTEQRWCYQDGLNDYLAEAVNGLPTLPEKPFIGNFAGDTEAVDWALLWLPEGGELLTESYVNLIPTMQGGTHVNGLRQGLLDAMREFCEYRNILPRGVKLSAEDIWDRCAYVLSVKMQDPQFAGQTKERLSSRQCAAFVSGVVKDAFILWLNQNVQAAELLAEMAISSAQRRMRAAKKVVRKKLTSGPALPGKLADCTAQDLNRTELFLVEGDSAGGSAKQARDREYQAIMPLKGKILNTWEVSSDEVLASQEVHDISVAIGIDPDSDDLSQLRYGKICILADADSDGLHIATLLCALFVKHFRALVKHGHVYVALPPLYRIDLGKEVYYALTEEEKEGVLEQLKRKKGKPNVQRFKGLGEMNPMQLRETTLDPNTRRLVQLTIDDEDDQRTDAMMDMLLAKKRSEDRRNWLQEKGDMAEIEV
B2: secE; a variant is named by its letters at X, in order (parent)
chain: MSANTEAQGSGRGLEAMKWXXVXAXLLVAIVGNYLYRDIMLPLRALAVXILIAAAGGVALLTTKGKATVAFAREARTEVRKVIWPTRQETLHTTLIVAAVTAVMSLILWGLDGILVRLVSFITGLRF

Key:
[1] = variants of: B1; assay: barcode share on antibiotic plates over drug-free plates; higher = less susceptible; details: with Escherichia coli (laboratory strain)
Protocol: (§1)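 A pool of E. coli strains, each edited to carry one amino-acid change in an essential protein, was grown for 48 h on minimal glucose agar with or without antibiotic; strain barcodes were sequenced; mean of two replicates.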

[2] = variants of: B2; assay: as above; details: with Escherichia coli (laboratory strain); remark: listed apart in the source
Protocol: as §1

[3] = antibiotic: carbenicillin, 2× MIC (3.1 µg/mL)
[4] = antibiotic: gentamicin, 2× MIC (MIC 0.45 µg/mL)

Variant | fold change of barcode share [1, 3] | fold change of barcode share [1, 4] | fold change of barcode share [2, 4] | fold change of barcode share [2, 3]
I116Q | 0.286 ± 0.12 | 0.137 ± 0.19 |  | 
I116A | 0.371 ± 0.062 | 0.00607 ± 0.0043 |  | 
V346A | 0.351 ± 0.03 | 0.00728 ± 0.0011 |  | 
L283Q | 0.302 ± 0.12 | < 0.0112 |  | 
L59D | 0.2359 ± 0.00088 | 0.0284 ± 0.037 |  | 
L59Q | 0.35 ± 0.014 | 0.006 ± 0.007 |  | 
L59P | 0.258 ± 0.04 | < 0.00408 |  | 
L59A | 0.254 ± 0.018 | < 0.00156 |  | 
L59W | 0.831 ± 0.018 | 0.0804 ± 0.11 |  | 
V119A | 0.289 ± 0.032 | < 0.0121 |  | 
V319A | 0.33 ± 0.21 | 0.104 ± 0.14 |  | 
V319Q | 0.283 ± 0.029 | < 0.0042 |  | 
MSANTEAQGSGRGLEAMKWVVVDALLLVAIVGNYLYRDIMLPLRALAVVILIAAAGGVALLTTKGKATVAFAREARTEVRKVIWPTRQETLHTTLIVAAVTAVMSLILWGLDGILVRLVSFITGLRF [VVDLV] |  |  | 0.0043 ± 0.0045 | 
MSANTEAQGSGRGLEAMKWPVVVALLLVAIVGNYLYRDIMLPLRALAVVILIAAAGGVALLTTKGKATVAFAREARTEVRKVIWPTRQETLHTTLIVAAVTAVMSLILWGLDGILVRLVSFITGLRF [PVVLV] |  |  | 0.00617 ± 0.0042 | 0.65 ± 0.17
MSANTEAQGSGRGLEAMKWVVVAALLLVAIVGNYLYRDIMLPLRALAVVILIAAAGGVALLTTKGKATVAFAREARTEVRKVIWPTRQETLHTTLIVAAVTAVMSLILWGLDGILVRLVSFITGLRF [VVALV] |  |  | 0.00722 ± 0.0041 | 
MSANTEAQGSGRGLEAMKWVVVVALLLVAIVGNYLYRDIMLPLRALAVWILIAAAGGVALLTTKGKATVAFAREARTEVRKVIWPTRQETLHTTLIVAAVTAVMSLILWGLDGILVRLVSFITGLRF [VVVLW] |  |  | < 0.00904 | 0.236 ± 0.034
MSANTEAQGSGRGLEAMKWVVVVAPLLVAIVGNYLYRDIMLPLRALAVVILIAAAGGVALLTTKGKATVAFAREARTEVRKVIWPTRQETLHTTLIVAAVTAVMSLILWGLDGILVRLVSFITGLRF [VVVPV] |  |  | 0.00603 ± 0.0055 | 0.257 ± 0.1
MSANTEAQGSGRGLEAMKWVVVVAQLLVAIVGNYLYRDIMLPLRALAVVILIAAAGGVALLTTKGKATVAFAREARTEVRKVIWPTRQETLHTTLIVAAVTAVMSLILWGLDGILVRLVSFITGLRF [VVVQV] |  |  | 0.00284 ± 0.0016 | 0.318 ± 0.13
MSANTEAQGSGRGLEAMKWVVVWALLLVAIVGNYLYRDIMLPLRALAVVILIAAAGGVALLTTKGKATVAFAREARTEVRKVIWPTRQETLHTTLIVAAVTAVMSLILWGLDGILVRLVSFITGLRF [VVWLV] |  |  | < 0.00738 | 0.328 ± 0.1
MSANTEAQGSGRGLEAMKWVVVVALLLVAIVGNYLYRDIMLPLRALAVVILIAAAGGVALLTTKGKATVAFAREARTEVRKVIWPTRQETLHTTLIVAAVTAVMSLILWGLDGILPRLVSFITGLRF [VVVLV V116P] |  |  | < 0.018 | 0.305 ± 0.19
MSANTEAQGSGRGLEAMKWVVVVAWLLVAIVGNYLYRDIMLPLRALAVVILIAAAGGVALLTTKGKATVAFAREARTEVRKVIWPTRQETLHTTLIVAAVTAVMSLILWGLDGILVRLVSFITGLRF [VVVWV] |  |  | 0.235 ± 0.24 | 0.357 ± 0.13
MSANTEAQGSGRGLEAMKWVWVVALLLVAIVGNYLYRDIMLPLRALAVVILIAAAGGVALLTTKGKATVAFAREARTEVRKVIWPTRQETLHTTLIVAAVTAVMSLILWGLDGILVRLVSFITGLRF [VWVLV] |  |  | 0.00419 ± 0.00089 | 0.469 ± 0.081
MSANTEAQGSGRGLEAMKWDVVVALLLVAIVGNYLYRDIMLPLRALAVVILIAAAGGVALLTTKGKATVAFAREARTEVRKVIWPTRQETLHTTLIVAAVTAVMSLILWGLDGILVRLVSFITGLRF [DVVLV] |  |  | 0.0028 ± 0.0006 | 0.809 ± 0.074
